Measurements published in ChEMBL document CHEMBL1157539, “Thousands of chemical starting points for antimalarial lead identification” (Nature, 2010).
In all, about 13,000 compounds were measured (“IFI”: median about 4, highest 2% from about 17 on). This is one part of the list.

Test: GSK_TCMDC: Inhibition Frequency Index (IFI). The number of non-kinase HTS assays where a compound showed > 50 % inhibition, expressed as a percentage of the number of such assays in which the compound was tested (-0 is zero)
Format: functional

SMILES	IFI [%]
Cn1nc(-c2ccc(CNC3CCc4ccccc43)cc2)c2cnc(NCCN3CCCC3)nc21 (configuration not stated)	3.85
O=C(Nc1cccc(CN2CCCN(Cc3ccc(F)cc3)CC2)c1)c1cc2ccccc2s1	4.58
COc1cc(OC)c(OC)cc1C=NN=c1cc(C)[nH]c2ccccc12	2.11
O=S(=O)(c1cc(Cl)ccc1Cl)N1CCCCC(c2ccc(C(F)(F)F)cc2)=N1	0
Oc1ccc(CCNc2nc(NCc3ccccc3-c3ccc(C(F)(F)F)cc3)nc(N3CCCNCC3)n2)cc1	14.9
O=C(CCCCCNC(=O)c1ccc(O)c(-c2ccc(Cl)c(Cl)c2)c1)NCCN1CCCC1	0.74
CC(C)CCNC(=O)C1Cc2c([nH]c3cc(Br)ccc23)C2(CCN(Cc3ccccc3)CC2)N1 (configuration not stated)	2.17
COc1ccccc1C1CCN(C2CCC(NC(=O)/C=C/c3cccc(C(F)(F)F)c3)CC2)CC1 (configuration not stated)	15.4
COc1ccccc1C1CC(c2ccc(Br)cc2)=NN1C(=O)c1ccccc1 (configuration not stated)	2
COc1cc(NCCCCNc2ccc(Cl)c(Cl)c2)nc2ccccc12	26.5
COc1ccc(Br)cc1/C=C/C(=O)Nc1ccc(C2CCN(C)CC2)cc1	3.45
COc1ccc2nc3cc(Cl)ccc3c(NCCCN3CCNCC3)c2c1	4.44
CC(CCc1ccccc1)NCC(O)c1cccc(C(F)(F)F)c1 (configuration not stated)	2.82
CCOc1ccc2[nH]c(C)cc(=NN=Cc3ccccc3F)c2c1	1.52
CCOc1cc(O)c(-c2nc(N)ncc2-c2ccc3c(c2)OCCO3)cc1CC	4.23
Cc1ccc(O)c(Nc2c3c(c(C#N)c4nc5ccccc5n24)CCC3)c1	2.99
CCCCCCNCCOc1ccc(-c2nc(-c3ccccc3)c(-c3ccccc3)[nH]2)cc1	8.57
O=C(/C=C/c1ccc(Cl)c(Cl)c1)NCCCCCN1CCCN(C(=O)Nc2cccc(Cl)c2)CC1	5.37
CC(=O)Nc1cccc(C(=O)Nc2cccc(-c3ccc(-c4nc5cc(F)ccc5[nH]4)cc3)c2)c1	5.26

SMILES	IFI [%]
COc1ccc2cc(-c3nc(-c4c(Cl)cccc4Cl)[nH]c3-c3ccnc(NCCCN4CCN(C)CC4)c3)ccc2c1	7.14
CC(C)CNCc1ccc(-c2cccc(CN(CCCN3CCN(C)CC3)C(=O)/C=C/c3ccccc3)c2)cc1	8.09
Cc1cccc2nc(-c3cccc(-c4cccc(C(=O)NCc5nccn5C)c4)c3)[nH]c12	2.75
CCCCCN1CCCN(Cc2cccc(NC(=O)c3cc4ccccc4s3)c2)CC1	6.82
O=C(Nc1ccc(Cn2nc(Cl)c(N3CCCNCC3)cc2=O)cc1)c1ccc(-c2ccccc2)cc1	10.2
Cc1ccc(Nc2nc(NN=Cc3ccc(-c4ccc([N+](=O)[O-])cc4)o3)nc(N3CCOCC3)n2)cc1Cl	0.75
CO/C(=C\C=C\c1cc2cc(Cl)c(Cl)cc2[nH]1)C(=O)NCCCN1CCN(C2CCCCC2)CC1	11.5
Cc1cccc(CNc2nc(C)cc(N[C@@H](Cc3ccccc3)C(=O)NCCc3ccccc3)n2)c1	14.3
CCCCCCCCN1CCN(CCCCCCNc2c3ccccc3nc3ccccc23)CC1	13.5
COc1cc(C2=NN(S(=O)(=O)c3c(Cl)cc(Cl)cc3Cl)CCCC2)ccc1Cl	2.16
CCCCCCCCCCN1C(=O)C2C(CCCCNC(C)=O)NC3(C(=O)N(Cc4ccc(C(C)(C)C)cc4)c4ccccc43)C2C1=O (configuration not stated)	2.19
COc1ccc2c(c1)[nH]c1c(C=Cc3ccccc3)nccc12	1.45
N#Cc1ccc2c(c1)CCN(CCC1CCC(NC(=O)c3cc4ccccc4[nH]3)CC1)CC2 (configuration not stated)	4.26
Cc1ccc(-c2nc(N3CCN(C(=O)c4ccco4)CC3)c3ccccc3n2)cc1	2.5
C=C[C@H]1CN(CCCCCCC)CC[C@H]1CC(=O)Nc1cnnc2ccc(OC)cc12	0.75
CCCCCCn1c(Sc2ccc(C#N)c([N+](=O)[O-])c2)nnc1-c1ccc(N(C)C)cc1	8.39
N=C(N)Nc1ccc(CCc2ccc(NC(=N)N)cc2)cc1	2.26
CCOc1ccc(Nc2nc(N)c3ccccc3n2)cc1	4.03
Cn1cnc(CCNC(=O)c2cccc(-c3csc(-c4nc5ccccc5[nH]4)c3)c2)c1	4.72

SMILES	IFI [%]
CN1CCN(c2ccnc3ccc(NC(=O)Cc4ccc(-c5ccncc5)c5ccccc45)cc23)CC1	5.19
O=C(Nc1cccc(F)c1)c1ccc(C(=O)NC2CCN(CC3CCCCC3)C2)cc1 (configuration not stated)	3.51
CS(=O)(=O)N(c1ccccc1)c1cc(C(=O)N[C@@H](Cc2ccccc2)[C@H](O)CNC2CC2)cc(N2CCCC2=O)c1	2.21
Cc1cc(C)c(C)c(OCCCON2C(=N)N=C(N)NC2(C)C)c1C	4.23
CCn1ncc2c(N3CCCC3=O)cc(C(=O)N[C@@H](Cc3ccccc3)[C@H](O)CNC(C)(C)c3cccc(C(F)(F)F)c3)cc21	1.46
COc1ccc2c(NCCc3ccccc3)cc(-c3ccccc3)nc2c1	2.17
O=c1cc(NCCNCc2cccc(-c3ccccc3)c2)[nH]c2ccccc12	2.96
CCOC(=O)C1=C(C)NC2=C(C(=O)CCC2)C1c1cn(Cc2ccc(Cl)cc2Cl)nc1-c1ccccc1 (configuration not stated)	1.75
O=C(NCCc1ccccc1F)c1ccc(N2CCN(c3ccncc3)CC2)cn1	6.9
CCCN1CCC(NCc2cn(C)nc2-c2ccc(Oc3ccccc3)cc2)CC1	13.6
O=C(Cn1c(CCc2cccc(F)c2F)cc(=O)c2ccccc21)N(Cc1ccc(-c2ccc(C(F)(F)F)cc2)cc1)C1CCN(CCO)CC1	8.09
COc1ccccc1/C=C/C(=O)N(C)C1CCN(CCCCCNC(=O)/C=C/c2ccc(Cl)c(Cl)c2)C1 (configuration not stated)	5.84
Nc1nc(-c2ccccn2)nc(-n2nc(-c3cccc(C(F)(F)F)c3)cc2N)n1	7.46
Oc1ccc2ncnc(Nc3ccc(OCc4cccc(F)c4)c(Cl)c3)c2c1	2.94
Cc1cc(CN2C(=O)C(c3ccccc3)(c3ccccc3)N=C2N)c(C(F)(F)F)o1	3.51
CCCC1N=C(N)N=C(N)N1c1ccc(C)c(C)c1 (configuration not stated)	0
COc1cc(Cc2cnc(N)nc2N)ccc1OCc1ccc(NC(C)=O)cc1	0.93
Cc1cccc2nc(-c3ccc(-c4ccc(CN5CCN(c6ccc(C#N)cn6)CC5)cc4)s3)[nH]c12	1.98
CCC(C(=O)Nc1cc(=O)[nH]c2nc(-c3ccco3)nn12)c1ccccc1 (configuration not stated)	4.35
